PubChem BioAssay AID624417 (National Center for Advancing Translational Sciences (NCATS), 2012)
The whole screen tested about 410,000 compounds, of which about 6,400 (1.6%) were called active. Inconclusive results, whose numbers are uncertain, are shown with a selection of clear calls. Calls come from the whole dose curve; as a rule, active = well fitted inhibition curve with a large enough effect; inconclusive = small, poorly fitted or top-dose-only effect; inactive = no such curve, though single readings can be large or run the other way. No potency is given beside an inconclusive call; the fits are too rough.

Target: Glucagon-like peptide 1 receptor (Homo sapiens) (UniProt P43220)
Assay: qHTS of GLP-1 Receptor Inverse Agonists (Inhibition Mode); note: nearly all actives have a fitted effect of over 55% in size
Conditions: HEK293 GLP-1R CRE-luciferase, luminescence, 24 h, GLP-1R form is constitutively active; activity change, negative = inhibition: at 38.3 µM (top of the series) unless noted
In short: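 Readout was luciferase luminescence, measured 12 min after detection reagent at room temperature. Beforehand, GLP-1R reporter HEK293 cells had sat 12 h, then received compounds for 24 hr at 37 deg C.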
% is set by controls: 0 for no effect and ±100 for the full control effect; potency is the fitted concentration of half-maximal effect; tags give direction and shape of the fitted curve.

Sequence of UniProt P43220 (P43220 whole entry, looked up): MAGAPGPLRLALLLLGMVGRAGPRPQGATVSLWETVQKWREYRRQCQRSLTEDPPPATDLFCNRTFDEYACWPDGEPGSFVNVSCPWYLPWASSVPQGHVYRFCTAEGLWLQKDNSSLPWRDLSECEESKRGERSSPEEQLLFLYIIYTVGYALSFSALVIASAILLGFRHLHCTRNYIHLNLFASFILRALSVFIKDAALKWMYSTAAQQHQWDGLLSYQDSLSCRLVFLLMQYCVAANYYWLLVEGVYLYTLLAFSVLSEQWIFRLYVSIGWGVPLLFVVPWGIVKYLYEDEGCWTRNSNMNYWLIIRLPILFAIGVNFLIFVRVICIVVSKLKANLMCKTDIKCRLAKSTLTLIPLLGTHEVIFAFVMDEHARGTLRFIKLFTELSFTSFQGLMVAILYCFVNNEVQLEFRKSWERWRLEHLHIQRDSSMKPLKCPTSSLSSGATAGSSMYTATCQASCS

Row | Compound | Potency | activity change, negative = inhibition
1 | CCc1ccc(NC(=O)c2cc(S(=O)(=O)N3CCCC3)ccc2F)cc1 | inconclusive [inhibitor, partial curve, poor fit] | 
2 | CCCS(=O)(=O)N1CC(=O)N(c2ccccc2F)C(C)(C(=O)NC2CCCCCC2)C1 (centres undefined) | inactive | 
3 | N#C/C(=C\c1cn[nH]c1-c1ccccc1)C(=O)NC1CCCCCC1 | inconclusive [inhibitor, single point] | 
4 | COc1ccc2cc(CCNC(=O)c3c(-c4ccccc4Cl)noc3C)c(=O)[nH]c2c1 | inconclusive [inhibitor, single point] | 
5 | CCC1CCCCN1CCCNC(=O)c1ccc2c(c1)N(Cc1ccccc1F)C(=O)c1ccccc1S2(=O)=O (centres undefined) | inconclusive [inhibitor, partial curve, poor fit] | 
6 | COc1ccc(NC(=O)N2CCCc3cccc(C)c32)cc1 | inconclusive [inhibitor, single point] | 
7 | CC(=NNC(=S)N1CCCCC1)c1cccc(C)n1 | inconclusive [inhibitor, full curve, poor fit] | 
8 | CNC(=S)N(CCc1c(C)[nH]c2ccc(Cl)cc12)Cc1cccnc1 |  | inconclusive: -43.2% [inhibitor]
9 | CC1CCN(C(=O)CSc2nc(-c3ccc(C(C)C)cc3)no2)CC1 | inconclusive [inhibitor, single point] | 
10 | S=c1[nH]nc(Cc2cccs2)n1-c1ccccc1Cl | inactive | 
11 | Cc1ccccc1C(=O)NC(=S)NCc1ccccc1 | inconclusive [inhibitor, partial curve, poor fit] | 
12 | C/C(=N\Nc1ccc(Cl)cc1)c1c(O)cc(C)oc1=O | inconclusive [inhibitor, full curve, poor fit] | 
13 | O=C(OCc1cccc(C(F)(F)F)c1)c1cc([N+](=O)[O-])ccc1N1CCOCC1 | active: 10 µM | 
14 | CCCCCCCCCCCC1=C(O)C(=O)C=C(O)C1=O | inactive | 
15 | CC(c1ccccc1)n1c(-c2ccc(C(C)(C)C)cc2)n[nH]c1=S (centres undefined) | inconclusive [inhibitor, single point] | 
16 | CN(C)CCCn1c(SCC(=O)N2c3ccccc3Sc3ccccc32)nc2ccccc2c1=O | inconclusive [inhibitor, partial curve, poor fit] | 
17 | Cc1ccccc1N/C(=N/S(=O)(=O)c1cc(F)ccc1F)c1ccccc1 | inconclusive [inhibitor, single point] | 
18 | CN(C)CC1CC/C(=C\c2ccc(O)cc2)C1=O (centres undefined) | inconclusive [inhibitor, single point] | 
19 | CC1(C)N(OCc2ccccc2)C(=O)C(=O)N(OCc2ccccc2)C1(C)C | inconclusive [inhibitor, single point] | 
20 | N#Cc1ccccc1OCC(=O)Nc1cccc(S(=O)(=O)N2CCCC2)c1 | inactive | 
21 | C(=C\c1ccccc1)/CN1CCN(C(c2cccs2)c2nnnn2C2CCCC2)CC1 (centres undefined) | inconclusive [inhibitor, single point] | 
22 | Cc1ccc(S(=O)(=O)N2CCN(c3ccccc3)CC2)cc1C | inactive | 

Row | Compound | Potency | activity change, negative = inhibition
23 | COc1ccc(C(=O)Nc2nnc(SCC(=O)NCc3ccco3)s2)c(OC)c1 | inconclusive [inhibitor, full curve, poor fit] | 
24 | COCCCNC(NC(=O)c1ccc(Br)cc1)C(Cl)(Cl)Cl (centres undefined) | inconclusive [inhibitor, single point] | 
25 | O=C(C[C@H]1C/C=C\CC[C@H](Cc2ccc(F)cc2)C(=O)O[C@@H](c2ccccc2)CNC1=O)N[C@H](CO)Cc1ccccc1 | inconclusive [inhibitor, single point] | 
26 | COc1cc2ncc(S(=O)(=O)c3ccccc3)c(N3CCCC(C)C3)c2cc1OC (centres undefined) | inconclusive [inhibitor, single point] | 
27 | CC(=O)c1c(C)[nH]c(C(=O)OCC(=O)N(Cc2ccccc2)C(C)(C)C)c1C | inconclusive [inhibitor, single point] | 
28 | Cc1ccc(C)c(NC(=O)CCc2nc(-c3ccc(C(C)(C)C)cc3)no2)c1 | inconclusive [inhibitor, single point] | 
29 | CCOc1ccc(Br)cc1S(=O)(=O)Nc1ccc(C(=O)OC(C)C(=O)N(C)c2ccccc2)cc1 (centres undefined) | inconclusive [inhibitor, partial curve, poor fit] | 
30 | O=C(NCCC1=CCCCC1)c1cc(S(=O)(=O)N2CCOCC2)ccc1F | inconclusive [inhibitor, single point] | 
31 | COc1ccc(S(=O)(=O)N2CCCCCC2)cc1N(C)S(=O)(=O)c1ccc(Cl)cc1 | active: 10 µM | 
32 | CCCN1CCC(N2CCN(c3ccc([N+](=O)[O-])cc3)CC2)CC1 | inconclusive [inhibitor, single point] | 
33 | COc1ccc(C(=O)OCC(=O)Nc2sccc2C(N)=O)cc1OC | inactive | 
34 | CCC1CCCCN1S(=O)(=O)c1ccc(NC(=O)c2snnc2C)cc1 (centres undefined) | inconclusive [inhibitor, partial curve, poor fit] | 
35 | Cc1ccc(S(=O)(=O)N(C)c2ccc(OCC(=O)Nc3nc4ccccc4s3)cc2)cc1 | inconclusive [inhibitor, partial curve, poor fit] | 
36 | O=C(Cn1nc2c(cc1=O)CCCC2)NCc1ccccc1 | inconclusive [inhibitor, single point] | 
37 | O=C(NCCc1ccccc1)C1(c2ccccc2)CCCC1 | inconclusive [inhibitor, single point] | 
38 | COc1ccc(N2CCN(CCNC(=O)Nc3cccc(C)c3C)CC2)cc1 | inactive | 
39 | O=C(COC(=O)Cn1cnc2ccccc2c1=O)Nc1cc(Cl)ccc1[N+](=O)[O-] | inactive | 
40 | O=C(Nc1cc(C(F)(F)F)ccc1Cl)C(=O)N1CCCCC1 | inconclusive [inhibitor, partial curve, poor fit] | 
41 | Cc1cc(SCC(=O)c2ccccc2)n2ncc(-c3ccccc3)c2n1 | inconclusive [inhibitor, single point] | 
42 | CCN1CCN(c2ccc(NC(=O)c3cccc(S(=O)(=O)N4CCCC4)c3)cc2)CC1 | inconclusive [inhibitor, single point] | 
43 | O=C(NCc1ccccn1)C1CCN(Cc2cccc(OCc3ccccc3)c2)CC1 | inconclusive [inhibitor, single point] | 
44 | O=S(=O)(NC(=NCc1ccccc1)c1ccccc1)c1ccc(Br)cc1 | inconclusive [inhibitor, partial curve, poor fit] | 

Row | Compound | Potency | activity change, negative = inhibition
45 | COc1ccc(/C(O)=C2/C(=O)C(=O)N(CCN3CCOCC3)C2c2ccccn2)cc1 (centres undefined) | inactive | 
46 | O=[N+]([O-])c1cc([N+](=O)[O-])c2nonc2c1Nc1ccccc1O | inactive | 
47 | Cc1ccccc1-c1nc(CN2CCC(C(=O)NCCCN3CCCC(C)C3)CC2)c(C)o1 (centres undefined) | inconclusive [inhibitor, full curve, poor fit] | 
48 | COC(=O)N1CCc2c(sc(NC(=O)C3=COCCO3)c2C#N)C1 | inconclusive [inhibitor, full curve, poor fit] | 
49 | Cc1cccc(NC(=S)NC(C)C(c2cccs2)N2CCN(C)CC2)c1C (centres undefined) | inconclusive [inhibitor, partial curve, poor fit] | 
50 | COc1ccc(C(=O)CC2(O)C(=O)N(CCc3ccccc3)c3ccc(Br)cc32)cc1OC (centres undefined) | inconclusive [inhibitor, single point] | 
51 | O=[N+]([O-])c1ccc(N2CCN(Cc3ccccc3)CC2)nc1 | inconclusive [inhibitor, partial curve, poor fit] | 
52 | Brc1ccccc1OCCCN1CCOCC1 | inactive | 
53 | OC(C#CCN1CCCCC1)c1ccccc1 (centres undefined) | inactive | 
54 | COc1ccc2cc(C(=O)NCc3ccccc3CN3CCCC3)ccc2c1 | inconclusive [inhibitor, single point] | 
55 | CC1=NN(C(=O)c2ccc(Cn3nc(C)c([N+](=O)[O-])c3C)cc2)C(O)(C(F)(F)F)C1 (centres undefined) | inconclusive [inhibitor, single point] | 
56 | Cc1occc1C(=O)NNC(=O)C1CCCC1 |  | inactive: 3.35% [at 7.66 µM]
57 | C/C(=N\NC(=O)C1(C)NC(C)(C)Cc2ccccc21)c1ccccc1 (centres undefined) | inconclusive [inhibitor, full curve, poor fit] | 
58 | Cc1cc([N+](=O)[O-])nn1CC(=O)N/N=C/c1ccccc1O | inconclusive [inhibitor, single point] | 
59 | C[C@H](NC(=O)N1CCn2c1nc1ccccc12)C(=O)NCc1ccccc1 | inconclusive [inhibitor, partial curve, poor fit] | 
60 | O=C(c1ccc(Br)cc1)N1CCC(C(=O)N2CCN(c3ccccc3)CC2)CC1 | inconclusive [inhibitor, partial curve, poor fit] | 
61 | CCNC(=S)N1CCN(S(=O)(=O)c2ccc(C)c(C)c2)CC1 | inconclusive [inhibitor, single point] | 
62 | COc1cccc(CC2(CO)CCN(C(=O)NC3CCCCC3)CC2)c1 | inconclusive [inhibitor, full curve, poor fit] | 
63 | CCOC(=O)c1[nH]c2ccc(F)cc2c1NC(=O)C(C)N1CCc2cc(OC)c(OC)cc2C1 (centres undefined) | inactive | 
64 | O=S(=O)(Nc1nc2ccccc2nc1N1CCc2ccccc2C1)c1ccc(Br)cc1 | inconclusive [inhibitor, partial curve, poor fit] | 
